According to the supplement of paper PMC10126150:
Values marked as one replicate rest on one cluster of the flow cell; about a third of the high ones do not repeat.

Tested on: ATP
Assay: switch fluorescence ratio, 500 uM ATP over buffer (Cy3 cluster intensity, sum of 5 cycles each) (fold (ratio)); higher = stronger signal-on switching upon ATP binding; sequences stand for … in TCGTCGGCAGCGTCAGATGTGTATAAGAGACAGTTTTTTTTTTTTTTTTTTTTTTTTT…TC
Conditions: aptamer strand: ATP DNA aptamer (quencher-CACCTGGGGGAGTATTGCGGAGGAAGG + anchor), 100 nM annealed; ATP concentration: 500 uM; one replicate
In short: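 The fluorescence ratio divides summed target-cycle Cy3 intensity by summed buffer-cycle Cy3 intensity for each cluster and is averaged per switch-domain sequence. Cy3-labelled switching-strand clusters on a modified Illumina MiSeq flow-cell were annealed to 100 nM quencher-labelled ATP aptamer, then imaged in selection buffer and again after 15 min with 500 uM ATP at 22 °C. Five such cycles were run, with NaOH stripping and re-annealing between them, and clusters outside 100-1000 RFU were excluded.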
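Also: ATP exposure 15 min at 22 °C before imaging.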

Row | Sequence | switch fluorescence ratio
1 | CTTCGTTATT | 1.07
2 | AGGGTACTA | 1.06
3 | CCCTCGTTA | 0.984
4 | ATCTTTGCAA | 2.42
5 | AACGGCCGTA | 1.02
6 | TGGACGCTCT | 1.06
7 | TAACGGAAT | 1.11
8 | AAGGAGGGCT | 1
9 | AACCTTCAGA | 1.81
10 | GAGTGATTTG | 1.02
11 | TTGGAGTC | 0.902
12 | GATGGGGCTT | 1.05
13 | GGTCTGGGCG | 0.974
14 | CCCTTGAGGG | 1.07
15 | GAGGTTAATC | 0.978
16 | CTCAGATCCC | 1.04
17 | GATTTAGAGA | 1.01
18 | TTAGTGCGT | 0.928
19 | GTGGGTGATT | 1.03
20 | CTGTAACTGG | 0.999
21 | GGTAAGTTA | 1.03
22 | TCTTTTACAG | 1.01
23 | TTACTCTGTC | 1.03

Row | Sequence | switch fluorescence ratio
24 | AACAAGGAGA | 0.975
25 | TGCTGTAGTC | 1.01
26 | ATGAGTGT | 0.988
27 | AGAACCGGGG | 0.99
28 | TATATGGCAG | 0.999
29 | TCGCGCGCAG | 1.05
30 | GGTCGGGCGG | 1
31 | TAGTCGCACA | 0.992
32 | CGGCCTGCCG | 1.03
33 | TGATGAGGT | 1.12
34 | CCTTAGGTTG | 1.07
35 | CGAACTCTAG | 1.04
36 | TCCGCCCAG | 1.01
37 | TGGGTGCGGA | 0.989
38 | AGTTCGAGCC | 1.01
39 | CAGCTGACTG | 1
40 | AAAGGCAGAT | 1.01
41 | ATTGTTAAAG | 0.992
42 | GCGAGGAGTG | 0.997
43 | GCGAAGAGAG | 1.01
44 | ATAGGAGCTT | 1
45 | TATATTTAGA | 0.984
46 | CGTGCAGCCC | 1.07

Row | Sequence | switch fluorescence ratio
47 | TGAGTCTTTA | 0.961
48 | TATAGCGTTG | 0.994
49 | TTACGGGACT | 1.22
50 | GGACGAATGC | 1.43
51 | GGTGATACCT | 1.13
52 | TACGATCAT | 1.1
53 | AGTGTCTAAA | 0.958
54 | TTACGAATAG | 1.02
55 | ACTTGTTCTC | 0.992
56 | TTATATCTTT | 1
57 | GTGCGGTATC | 1.06
58 | GTTGCGTCG | 0.987
59 | CCTGCCCAGA | 1.36
60 | GGTCTAGTAT | 0.964
61 | GGCCGTGTTA | 0.992
62 | GGCGATAAGA | 0.98
63 | AGGTAAGTGT | 0.979
64 | TCCTATAAAT | 1
65 | TGGGGTTCCG | 1.01
66 | AATTCGTGAG | 0.99
67 | GTCTCTGCCG | 0.995
68 | GCTATACATT | 1.11
69 | CCTGATGCCA | 1.01

Row | Sequence | switch fluorescence ratio
70 | GAGGATACTC | 1.02
71 | TACACTTTAT | 0.999
72 | ATGATGCCAA | 1.03
73 | ATCCGTCCGC | 1.9
74 | GGTGCACTCA | 1.01
75 | GTTGAGTTT | 0.98
76 | ATGCTCCCCA | 2.58
77 | ACGGCGGAA | 1.08
78 | GCGTCTTTGT | 0.951
79 | CGGGCCCGCT | 1.01
80 | TTCCGTTTGG | 0.979
81 | GGCTAAGCCT | 0.986
82 | ACCGAAGAGA | 1.01
83 | GTCGCGGGTC | 1.03
84 | TAGCGTAAGT | 1.02
85 | TGGAGAGGAG | 0.966
86 | TGTGCATTAC | 2.02
87 | CGTGGTTACA | 1
88 | TTAAAGTTT | 1.04
89 | AGGGTGGCGA | 1.01
90 | CGGTATGTT | 1
91 | TTCCTGTTG | 1.03
92 | CAAGGCGGG | 1.02

Row | Sequence | switch fluorescence ratio
93 | GGCGGCCTTT | 0.966
94 | CATAACACTT | 1.09
95 | GTTCTAAGGG | 1.05
96 | GACTTCGGCA | 1.82
97 | GCAGTCCAGC | 1.01
98 | CGCGGGTGAG | 1.02
99 | TAAATCTTTG | 1.04
100 | GAAGTCGGGA | 0.953
101 | CAATGCACGT | 1.01
102 | GGATCGGCGC | 0.942
103 | CAGCACCCGC | 1
104 | CAAGTGATGT | 0.976
105 | TTCTTATAT | 0.93
106 | TCTGGCGATT | 1.02
107 | AAGTCAGGCA | 1.06
108 | AATGGAAAGG | 1.01
109 | CATTTTGCTC | 1.05
110 | CTTCAGCCAC | 2.15
111 | AATGGGTGTT | 0.991
112 | GGCTGTGATA | 0.992
113 | AGTGACATGT | 1.02
114 | CAGGAGGTC | 1.01
115 | AAGTTCCTTA | 0.993

Row | Sequence | switch fluorescence ratio
116 | ACGATGTGGC | 1.05
117 | GCGGTATAGC | 1.06
118 | AGCAAAGAGA | 0.998
119 | ATTTCCGGAG | 3.1
120 | TAATGCAGAC | 1.24
121 | ATAATCCCC | 1.17
122 | GGAGTGCCCT | 0.998
123 | AGCTGGTGTT | 1.05
124 | CTCGAAAAGC | 1.09
125 | CCGGAATATT | 2.46
126 | AGTGACTGCC | 1.14
127 | GCATAGACTC | 1.9
128 | CGCTGACGTG | 0.983
129 | TGTGTGCTCT | 0.985
130 | TCTTTCTCTG | 1.12
131 | CCAGCTCGAC | 1.38
132 | CAGAAGAGGG | 0.978
133 | TCAGGAATAG | 1.53
134 | AATTATTGTC | 1.05
135 | ATGAGCATCA | 1.01
136 | ACAATTGCTT | 0.984
137 | TTGCCCTCGG | 1
138 | GTATGGATAG | 0.994

Row | Sequence | switch fluorescence ratio
139 | GCGCGCAACT | 1
140 | CGGTATATCC | 1.01
141 | GCCGTCGCTC | 1.04
142 | GTGCGTATGG | 1.03
143 | TCGAAGGCCA | 1.01
144 | TGTTCTAGCT | 1.01
145 | ATTATGGCTT | 1
146 | ACGCGTCCTT | 1.01
147 | TCGTAACGAG | 0.961
148 | TTAATTATAG | 0.954
149 | AGAAATGGGG | 0.998
150 | GAAGGATACA | 1.04
151 | AGAGATTAAA | 1.01
152 | GGACACAGAG | 1.02
153 | GGCGCTAGCT | 1.07
154 | AGTGTACCGC | 1.06
155 | AAATGTAGCG | 0.995
156 | TGACAGGCT | 1.02
157 | GGATGGGGG | 1
158 | GGTAATACAT | 1.01
